Experimental data: PubChem BioAssay AID686979 (National Center for Advancing Translational Sciences (NCATS), 2013)
Screen size: about 420,000 compounds; about 50,000 (12%) were called active. The shares of active, inactive and inconclusive entries below differ from those in the screen. Calls come from the whole dose curve; as a rule, active = well fitted inhibition curve with a large enough effect; inconclusive = small, poorly fitted or top-dose-only effect; inactive = flat fitted curve, though single readings scatter. No potency is given beside an inconclusive call; the fits are too rough.
% is set by controls: 0 for no effect and ±100 for the full control effect; potency is the fitted concentration of half-maximal effect; tags give direction and shape of the fitted curve.

Assay: qHTS for Inhibitors of human tyrosyl-DNA phosphodiesterase 1 (TDP1): qHTS in cells in presence of CPT; note: nearly all actives have a fitted effect of over 55% in size
Conditions: chicken DT40 Tdp1-/-;hTDP1 cells + 20 nM CPT, ATP luminescence, 48 h; activity change, negative = growth inhibition: at 46.2 µM (top of the series) unless noted
Summary of the method: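 Cell growth measured by CellTiter-Glo luminescence after a minimum 48 h, 37 C compound exposure with 20 nM CPT in Tdp1-knockout DT40 cells stably expressing hTDP1, seeded 400/well; qHTS titration format.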
For Nc1ccn([C@@H]2O[C@H](C(=O)N(CCC3=CCCCC3)CC3CC3)[C@@H](O)[C@H]2O)c(=O)n1, the activity change, negative = growth inhibition was inconclusive: -31.6% [inhibitor]. For COc1cc(NC(=O)Cc2ccc(OC)c(S(=O)(=O)N3CCOCC3)c2)c(OC)cc1Cl, the Potency was inconclusive [inhibitor, single point]. With COc1cc(OC)c(OC)cc1/C=N/NC(=O)CCc1c(C)n[nH]c1C the “activity change, negative = growth inhibition” value was inactive: -0.59%. With CCOC(=O)[C@]12CCC=C1N(Cc1cccc3ccccc13)C(=O)[C@H](CC(=O)NCc1cccs1)C2 the Potency was inconclusive [inhibitor, single point]. In the case of CCN(CC)CCSc1nnc2c3ccccc3n(CCc3ccccc3)c2n1, the Potency is reported as inconclusive [inhibitor, single point]. With CN1CCC(Oc2ccccc2Sc2ccccc2)CC1 the Potency was inconclusive [inhibitor, single point]. For Cc1ccc(S(=O)(=O)Oc2ccc(/C=C3/N=C(c4ccccc4)OC3=O)cc2)cc1, the Potency was inconclusive [inhibitor, single point]. In the case of O=C(c1ccc(CNc2c(N3CCCC3)c(=O)c2=O)cc1)N1CC=C(c2ccccc2)CC1, the Potency is reported as inconclusive [inhibitor, single point]. With CCOc1ccc(CCNC(=O)c2cc3c(=O)n(C)c4ccccc4c3n2C)cc1 the Potency was active: 20.6 µM. In the case of CC(=NO)C1CCC2C3CCC4CC(=NO)CCC4(C)C3C(C)(O)CC12C (centres undefined), the Potency is reported as inconclusive [inhibitor, single point]. In the case of CC1CCC(NC(=O)COc2ccccc2C(N)=O)CC1 (centres undefined), the activity change, negative = growth inhibition is reported as inconclusive: -10.1% [inhibitor]. With CC1CCCCN1C(=O)CSc1nc2ccccc2n1CC(=O)N1CCc2ccccc21 (centres undefined) the Potency was inconclusive [inhibitor, single point]. For Clc1ccc(OCc2nc(-c3ccncc3)no2)cc1, the activity change, negative = growth inhibition was inconclusive: -30.8% [inhibitor]. For Cc1cc(O)c(C2(O)C(=O)Nc3ccccc32)cc1C (centres undefined), the “activity change, negative = growth inhibition” value was inactive: 5.24%. With COc1ccccc1CC(=O)Nc1ccc(S(=O)(=O)N2CCOCC2)cc1 the “activity change, negative = growth inhibition” value was inactive: -0.316%. For OC1(c2ccc(Br)cc2)CCN(Cc2cccc(Br)c2)CC1, the Potency was active: 20.6 µM. With Cc1ccc(N2CC(NS(=O)(=O)c3cccs3)CC2=O)cc1 (centres undefined) the “activity change, negative = growth inhibition” value was inactive: -5.37%. For Cc1ccc(NC(=O)CC2Sc3ccccc3NC2=O)c(Br)c1 (centres undefined), the Potency was inconclusive [inhibitor, partial curve]. In the case of N#Cc1c(N)n(-c2ccccc2N)c2nc3ccccc3nc12, the Potency is reported as inconclusive [inhibitor, single point].
